# The other results are listed elsewhere or left out.
# B1: Sebin1 (Coprinopsis cinerea), A8PEE3 (protein)
# chain: MTSPFYAHIHNVQDDNTWRFTLIFANRATADEWWRAISEAPANTSIAKSITRVTPQYYTHDVNIWNIWNFFADGNIKSISERFRGRLFIVLENDRGGRGITVIPPVPIVDHVSGNWFYIRSKTAPHLFWYYDERRSSIYASKEKRTRFKISIRNPSSQTPKNAIMINTDDVTIHIKENLYVGVDNNLGHIIPTRAYRTFKFGELESGAIAGFDVVENIEERCSSTFDGASLSISGPDSSSPGEPWELV
# Columns and labels:
# Experiment in all cases: glycan array binding signal (z-score within array); higher = stronger binding
# Details in all cases: glycan notation: IUPAC condensed, linker removed
# Gal(a1-6)Glc = target: Gal(a1-6)Glc
# How it was run: (§1)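 The binding signal is a Z-score computed within each array. Data were drawn from 3228 arrays in the Consortium for Functional Glycomics database, restricted to those with a known protein sequence. Scores were averaged over arrays of the same protein sequence at different concentrations or buffers, and over linkers, and negative values can be taken as non-binding.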
# Gal(b1-2)Gal = target: Gal(b1-2)Gal
# How it was run: as §1
# Gal(b1-3)Gal = target: Gal(b1-3)Gal
# How it was run: as §1
# Gal(b1-3)Gal(b1-4)GlcNAc = target: Gal(b1-3)Gal(b1-4)GlcNAc
# How it was run: as §1
# Gal(b1-3)GalNAc = target: Gal(b1-3)GalNAc
# How it was run: as §1
# [1] = target: Gal(b1-3)GalNAc(a1-3)[Fuc(a1-2)]Gal(b1-4)Glc
# How it was run: as §1
# [2] = target: Gal(b1-3)GalNAc(a1-3)[Fuc(a1-2)]Gal(b1-4)GlcNAc
# How it was run: as §1
# Gal(b1-3)GalNAc(b1-3)Gal = target: Gal(b1-3)GalNAc(b1-3)Gal
# How it was run: as §1
# [3] = target: Gal(b1-3)GalNAc(b1-3)Gal(a1-4)Gal(b1-4)Glc
# How it was run: as §1
# [4] = target: Gal(b1-3)GalNAc(b1-4)Gal(b1-4)Glc
# How it was run: as §1
# [5] = target: Gal(b1-3)GalNAc(b1-4)[Neu5Ac(a2-3)]Gal(b1-4)Glc
# How it was run: as §1
# Gal(b1-3)GlcNAc = target: Gal(b1-3)GlcNAc
# How it was run: as §1
# [6] = target: Gal(b1-3)GlcNAc(a1-3)Gal(b1-4)GlcNAc
# How it was run: as §1
# [7] = target: Gal(b1-3)GlcNAc(a1-6)Gal(b1-4)GlcNAc
# How it was run: as §1
# Gal(b1-3)GlcNAc(b1-2)Man = target: Gal(b1-3)GlcNAc(b1-2)Man
# How it was run: as §1
# [8] = target: Gal(b1-3)GlcNAc(b1-2)Man(a1-3)[Gal(b1-3)GlcNAc(b1-2)Man(a1-6)]Man(b1-4)GlcNAc(b1-4)GlcNAc
# How it was run: as §1
# [9] = target: Gal(b1-3)GlcNAc(b1-2)Man(a1-3)[Gal(b1-3)GlcNAc(b1-2)Man(a1-6)]Man(b1-4)GlcNAc(b1-4)[Fuc(a1-6)]GlcNAc
# How it was run: as §1
# [10] = target: Gal(b1-3)GlcNAc(b1-2)Man(a1-3)[GlcNAc(b1-4)][Gal(b1-3)GlcNAc(b1-2)Man(a1-6)]Man(b1-4)GlcNAc(b1-4)GlcNAc
# How it was run: as §1
# [11] = target: Gal(b1-3)GlcNAc(b1-2)[Gal(b1-3)GlcNAc(b1-6)]Man(a1-6)[Gal(b1-3)GlcNAc(b1-2)Man(a1-3)]Man(b1-4)GlcNAc(b1-4)GlcNAc
# How it was run: as §1
# [12] = target: Gal(b1-3)GlcNAc(b1-3)Gal(b1-3)GlcNAc
# How it was run: as §1
# [13] = target: Gal(b1-3)GlcNAc(b1-3)Gal(b1-4)Glc
# How it was run: as §1
# [14] = target: Gal(b1-3)GlcNAc(b1-3)Gal(b1-4)GlcNAc
# How it was run: as §1
# [15] = target: Gal(b1-3)GlcNAc(b1-3)Gal(b1-4)GlcNAc(b1-2)Man(a1-3)[Gal(b1-3)GlcNAc(b1-3)Gal(b1-4)GlcNAc(b1-2)Man(a1-6)]Man(b1-4)GlcNAc(b1-4)GlcNAc
# How it was run: as §1
# [16] = target: Gal(b1-3)GlcNAc(b1-3)Gal(b1-4)GlcNAc(b1-2)[Gal(b1-3)GlcNAc(b1-3)Gal(b1-4)GlcNAc(b1-6)]Man(a1-6)[Gal(b1-3)GlcNAc(b1-3)Gal(b1-4)GlcNAc(b1-2)Man(a1-3)]Man(b1-4)GlcNAc(b1-4)[Fuc(a1-6)]GlcNAc
# How it was run: as §1
# [17] = target: Gal(b1-3)GlcNAc(b1-3)Gal(b1-4)GlcNAc(b1-3)Gal(b1-4)GlcNAc(b1-2)[Gal(b1-3)GlcNAc(b1-3)Gal(b1-4)GlcNAc(b1-3)Gal(b1-4)GlcNAc(b1-6)]Man(a1-6)[Gal(b1-3)GlcNAc(b1-3)Gal(b1-4)GlcNAc(b1-3)Gal(b1-4)GlcNAc(b1-2)Man(a1-3)]Man(b1-4)GlcNAc(b1-4)[Fuc(a1-6)]GlcNAc
# How it was run: as §1
# [18] = target: Gal(b1-3)GlcNAc(b1-3)Gal(b1-4)GlcNAc(b1-6)[Gal(b1-3)GlcNAc(b1-3)]Gal(b1-4)Glc
# How it was run: as §1
# [19] = target: Gal(b1-3)GlcNAc(b1-3)Gal(b1-4)[Fuc(a1-3)]GlcNAc
# How it was run: as §1
# [20] = target: Gal(b1-3)GlcNAc(b1-3)Gal(b1-4)[Fuc(a1-3)]GlcNAc(b1-6)[Gal(b1-3)GlcNAc(b1-3)]Gal(b1-4)Glc
# How it was run: as §1
# [21] = target: Gal(b1-3)GlcNAc(b1-3)GalNAc
# How it was run: as §1
# [22] = target: Gal(b1-3)GlcNAc(b1-6)Gal(b1-4)GlcNAc
# How it was run: as §1
# [23] = target: Gal(b1-3)GlcNAc(b1-6)GalNAc
# How it was run: as §1
# [24] = target: Gal(b1-3)GlcNAc(b1-6)[Gal(b1-3)]GalNAc
# How it was run: as §1
# Gal(b1-3)GlcNAc6S = target: Gal(b1-3)GlcNAc6S
# How it was run: as §1
# [25] = target: Gal(b1-3)[Fuc(a1-4)]GlcNAc
# How it was run: as §1
# [26] = target: Gal(b1-3)[Fuc(a1-4)]GlcNAc(b1-2)Man
# How it was run: as §1
# [27] = target: Gal(b1-3)[Fuc(a1-4)]GlcNAc(b1-2)Man(a1-3)[Gal(b1-3)[Fuc(a1-4)]GlcNAc(b1-2)Man(a1-6)]Man(b1-4)GlcNAc(b1-4)[Fuc(a1-6)]GlcNAc
# How it was run: as §1
# [28] = target: Gal(b1-3)[Fuc(a1-4)]GlcNAc(b1-3)Gal(b1-3)[Fuc(a1-4)]GlcNAc
# How it was run: as §1
# [29] = target: Gal(b1-3)[Fuc(a1-4)]GlcNAc(b1-3)Gal(b1-4)[Fuc(a1-3)]GlcNAc
# How it was run: as §1
# [30] = target: Gal(b1-3)[Fuc(a1-4)]GlcNAc(b1-6)GalNAc
# How it was run: as §1
# [31] = target: Gal(b1-3)[GlcNAc(b1-6)]GalNAc
# How it was run: as §1
# [32] = target: Gal(b1-3)[Neu5Ac(a2-6)]GalNAc
# How it was run: as §1
# [33] = target: Gal(b1-3)[Neu5Ac(a2-6)]GlcNAc(b1-4)Gal(b1-4)Glc
# How it was run: as §1
# [34] = target: Gal(b1-3)[Neu5Ac(b2-6)]GalNAc
# How it was run: as §1
# Gal(b1-4)Gal = target: Gal(b1-4)Gal
# How it was run: as §1
# [35] = target: Gal(b1-4)GalNAc(a1-3)[Fuc(a1-2)]Gal(b1-4)GlcNAc
# How it was run: as §1
binder,measurement,setting,value
B1,glycan array binding signal (z-score),Gal(a1-6)Glc,-0.335
same,glycan array binding signal (z-score),Gal(b1-2)Gal,-0.598
same,glycan array binding signal (z-score),Gal(b1-3)Gal,-0.491
same,glycan array binding signal (z-score),Gal(b1-3)Gal(b1-4)GlcNAc,1.78
same,glycan array binding signal (z-score),Gal(b1-3)GalNAc,-0.003
same,glycan array binding signal (z-score),[1],-0.695
same,glycan array binding signal (z-score),[2],0.448
same,glycan array binding signal (z-score),Gal(b1-3)GalNAc(b1-3)Gal,-0.108
same,glycan array binding signal (z-score),[3],0.187
same,glycan array binding signal (z-score),[4],-0.364
same,glycan array binding signal (z-score),[5],-0.607
same,glycan array binding signal (z-score),Gal(b1-3)GlcNAc,-0.574
same,glycan array binding signal (z-score),[6],-0.485
same,glycan array binding signal (z-score),[7],-0.03
same,glycan array binding signal (z-score),Gal(b1-3)GlcNAc(b1-2)Man,-0.244
same,glycan array binding signal (z-score),[8],-0.529
same,glycan array binding signal (z-score),[9],-0.025
same,glycan array binding signal (z-score),[10],2.39
same,glycan array binding signal (z-score),[11],0.275
same,glycan array binding signal (z-score),[12],0.162
same,glycan array binding signal (z-score),[13],-0.671
same,glycan array binding signal (z-score),[14],-0.578
same,glycan array binding signal (z-score),[15],-0.1
same,glycan array binding signal (z-score),[16],-0.288
same,glycan array binding signal (z-score),[17],1.74
same,glycan array binding signal (z-score),[18],-0.03
same,glycan array binding signal (z-score),[19],-0.141
same,glycan array binding signal (z-score),[20],0.307
same,glycan array binding signal (z-score),[21],-0.277
same,glycan array binding signal (z-score),[22],-0.432
same,glycan array binding signal (z-score),[23],0.44
same,glycan array binding signal (z-score),[24],0.75
same,glycan array binding signal (z-score),Gal(b1-3)GlcNAc6S,-0.158
same,glycan array binding signal (z-score),[25],-0.514
same,glycan array binding signal (z-score),[26],0.391
same,glycan array binding signal (z-score),[27],0.303
same,glycan array binding signal (z-score),[28],0.077
same,glycan array binding signal (z-score),[29],-0.476
same,glycan array binding signal (z-score),[30],0.36
same,glycan array binding signal (z-score),[31],-0.363
same,glycan array binding signal (z-score),[32],0.26
same,glycan array binding signal (z-score),[33],0.647
same,glycan array binding signal (z-score),[34],-0.121
same,glycan array binding signal (z-score),Gal(b1-4)Gal,-0.142
same,glycan array binding signal (z-score),[35],-0.27
